Among all 350,000 compounds or so, about 31,000 (8.9%) were called active. Inconclusive results, whose numbers are uncertain, are shown with a selection of clear calls. Calls come from the whole dose curve; as a rule, active = well fitted inhibition curve with a large enough effect; inconclusive = small, poorly fitted or top-dose-only effect; inactive = no such curve, though single readings can be large or run the other way. Where the call is inconclusive, the potency comes from a doubtful curve fit.
These compounds were tested against Histone-lysine N-methyltransferase EHMT2 (Homo sapiens) (UniProt Q96KQ7) (assay: qHTS Assay for Inhibitors of Histone Lysine Methyltransferase G9a). Conditions: G9a H3K9 monomethylation, AlphaScreen, 2 h; activity, negative = inhibition: at 59 µM (top of the series) unless noted.
Chain of UniProt Q96KQ7 (Q96KQ7 whole entry, looked up): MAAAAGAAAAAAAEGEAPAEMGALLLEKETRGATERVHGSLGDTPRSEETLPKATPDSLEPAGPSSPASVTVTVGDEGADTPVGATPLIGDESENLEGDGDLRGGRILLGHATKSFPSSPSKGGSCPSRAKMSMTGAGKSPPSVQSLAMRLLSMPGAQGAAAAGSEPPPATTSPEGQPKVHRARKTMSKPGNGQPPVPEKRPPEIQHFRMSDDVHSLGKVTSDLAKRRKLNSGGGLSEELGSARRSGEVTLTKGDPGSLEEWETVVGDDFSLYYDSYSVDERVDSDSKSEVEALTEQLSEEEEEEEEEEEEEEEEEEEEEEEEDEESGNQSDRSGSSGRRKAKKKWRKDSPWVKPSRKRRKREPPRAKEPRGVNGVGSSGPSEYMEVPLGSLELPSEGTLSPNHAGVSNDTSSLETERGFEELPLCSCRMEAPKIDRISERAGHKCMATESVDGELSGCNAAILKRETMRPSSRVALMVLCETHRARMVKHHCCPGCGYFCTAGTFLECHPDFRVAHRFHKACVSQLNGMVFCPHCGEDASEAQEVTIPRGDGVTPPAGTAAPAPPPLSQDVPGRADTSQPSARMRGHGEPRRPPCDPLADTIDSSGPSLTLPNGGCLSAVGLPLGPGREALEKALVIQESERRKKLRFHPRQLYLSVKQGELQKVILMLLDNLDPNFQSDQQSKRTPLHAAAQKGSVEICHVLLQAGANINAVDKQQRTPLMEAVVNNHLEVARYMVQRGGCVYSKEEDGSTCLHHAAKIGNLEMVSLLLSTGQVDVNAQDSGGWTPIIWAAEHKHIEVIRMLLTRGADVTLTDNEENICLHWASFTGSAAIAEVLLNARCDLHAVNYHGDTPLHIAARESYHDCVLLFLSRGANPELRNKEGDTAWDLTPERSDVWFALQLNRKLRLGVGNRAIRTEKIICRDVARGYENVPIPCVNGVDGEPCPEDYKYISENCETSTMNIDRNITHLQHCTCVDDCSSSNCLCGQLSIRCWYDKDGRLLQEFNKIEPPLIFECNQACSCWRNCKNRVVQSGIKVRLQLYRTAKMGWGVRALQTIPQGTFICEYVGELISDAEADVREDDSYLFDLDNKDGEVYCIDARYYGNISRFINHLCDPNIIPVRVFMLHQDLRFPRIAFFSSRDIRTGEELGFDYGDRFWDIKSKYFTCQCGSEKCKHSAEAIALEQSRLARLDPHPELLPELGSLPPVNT
Outline: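 Enzyme 20 nM + cpd, 15 min RT; add b-H3K9 pep 500 nM / SAM 20 uM; 2 h RT; anti-H3K9me1 Ab 0.5 ug/mL + SA donor / anti-rabbit acceptor beads 20 ug/mL each, 10 min; AlphaScreen read.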
For O=C(NNc1nc2cc3c(cc2s1)OCCO3)c1ccc(F)cc1, the Potency was active: 50.1 µM. CC(=O)n1nc(-c2cccnc2)nc1NCc1ccc(F)cc1 was tested, and the Potency was inconclusive: 28.2 µM [inhibitor, partial curve, poor fit]. Fc1cccc(Cl)c1-c1nnc2ccc(N3CCOCC3)nn12 was tested, and the Potency was inconclusive: 89.1 µM [inhibitor, single point]. CCCn1nc(C(=O)NNC(=O)c2cccc(S(=O)(=O)NC(C)C)c2)c2ccccc2c1=O was tested, and the Potency was inconclusive: 50.1 µM [inhibitor, partial curve]. Cn1c(=O)[nH]c(=O)c2c1nc(NC1CCCC1)n2Cc1ccccc1 was tested, and the activity, negative = inhibition was inactive: -0.53% [at 12.7 µM]. COc1ccc(-c2cc(=O)[nH]c(=S)[nH]2)cc1 was tested, and the Potency was active: 50.1 µM. In the case of CC(C)NC(=O)c1sc2nc3c(c(-c4cccs4)c2c1N)CN(C)CC3, the activity, negative = inhibition is reported as inactive: 14.3% [at 12.7 µM]. With Cc1ccc(S(=O)(=O)N2CCN(C(=O)CN3CCOCC3)C2)cc1 the Potency was inconclusive: 89.1 µM [inhibitor, single point]. In the case of CCn1cc(C(=O)OCC(=O)Nc2cc(OC)cc(OC)c2)c(=O)c2ccc(C)nc21, the “activity, negative = inhibition” value is reported as inactive: 10.2%. For Cc1c(NC(=O)c2csc3c2CCCC3)c(=O)n(-c2ccccc2)n1C, the “activity, negative = inhibition” value was inactive: -12.7%. In the case of CC(NC(=O)CNC(=O)[C@@H]1Cc2ccccc2CN1)c1ccccc1 (stereo not given in full), the “activity, negative = inhibition” value is reported as inactive: -5.2% [at 102 µM]. C/C=C/C(=O)NCCc1ccc(OC)c(OC)c1 was tested, and the Potency was inconclusive: 0.891 µM [inhibitor, full curve, poor fit]. For O=C(c1ccc(Cl)cc1)N1CCC(c2nc3ccccc3o2)CC1, the “activity, negative = inhibition” value was inactive: -4.89%. With Cc1nnc2n1N=C(c1ccccc1)CS2 the Potency was inconclusive: 89.1 µM [inhibitor, single point]. CCOc1ccc(NC(=O)CSc2nnc(C3CC3)n2N)cc1 was tested, and the Potency was inconclusive: 56.2 µM [inhibitor, partial curve]. With O=C(CSc1nnc(-c2cccnc2)n1-c1ccccc1)N1CCN(c2ccc(F)cc2)CC1 the Potency was inconclusive: 17.8 µM [inhibitor, partial curve]. In the case of O=S(=O)(c1ccc(Br)cc1)N1CCCN(Cc2cccc(F)c2)CC1, the Potency is reported as inconclusive: 89.1 µM [inhibitor, single point]. With CC(C)CN(CCCNC(=O)c1cc(-c2cccs2)nc2ccccc12)CC(C)C the “activity, negative = inhibition” value was inactive: 7.92%. Cc1nn(C)c2c1c(-c1ccccc1)cc(=O)n2Cc1ccccc1C#N was tested, and the “activity, negative = inhibition” value was inactive: -19.3%. For CCOC(=O)C1CCCN(c2c(C(=O)c3ccc(OCC)cc3)cnc3ccccc23)C1 (stereo not given), the Potency was inconclusive: 15.8 µM [inhibitor, partial curve, poor fit]. For Cc1cc(C(F)F)n2ncc(C(=O)NCc3ccccc3F)c2n1, the “activity, negative = inhibition” value was inactive: 22.5%. In the case of Cc1ccc(Cn2c(C)cc3c(c2=O)C(c2cccs2)C(C#N)=C(N)O3)cc1 (stereo not given), the “activity, negative = inhibition” value is reported as inactive: 77.3%. With CNNC(=O)C(=O)NNS(=O)(=O)c1ccccc1 the Potency was inconclusive: 15.8 µM [inhibitor, full curve, poor fit]. For Cc1cc(NC(=O)CCS(=O)(=O)c2nc(-c3ccccc3)cc(C(F)(F)F)n2)no1, the Potency was inconclusive: 1.41 µM [inhibitor, full curve, poor fit]. For Cc1noc(NS(=O)(=O)c2ccc(NC(=O)CCn3c(=O)oc4ccccc43)cc2)c1C, the Potency was inconclusive: 14.1 µM [inhibitor, full curve]. With Cc1oc(-c2ccc(-c3ccccc3)cc2)nc1CN(C)C1CCOC1 (stereo not given) the Potency was inconclusive: 44.7 µM [inhibitor, partial curve]. Cc1cc(OCC(=O)Nc2c(C(=O)c3ccccc3)oc3ccccc23)cc(C)c1Cl was tested, and the “activity, negative = inhibition” value was inactive: 5.04%. Cc1ccc(N2CCCn3c2nc2c3c(=O)n(CC(=O)OCc3ccccc3)c(=O)n2C)cc1C was tested, and the Potency was inconclusive: 89.1 µM [inhibitor, partial curve, poor fit]. For Cc1cc(NC(=O)CSc2nnc3c(C)cc4c(C)ccc(C)c4n23)no1, the Potency was inconclusive: 8.91 µM [inhibitor, partial curve, poor fit]. For O=C(Nc1nc(-c2cccc(Br)c2)cs1)Oc1ccccc1, the Potency was inconclusive: 70.8 µM [inhibitor, single point]. In the case of Cc1ccc2nc(-c3ccc(NC(=O)CCN4C(=O)c5ccccc5C4=O)cc3)sc2c1, the Potency is reported as active: 44.7 µM. O=C(CCC1N=C2c3ccccc3N=C(SCc3cccc(F)c3)N2C1=O)NCCc1ccccc1 (stereo not given) was tested, and the “activity, negative = inhibition” value was inactive: -2.64%. With CC1(C)CC(=O)C(C=NCCN2CCN(CCCCS(=O)(=O)O)CC2)=C(O)C1 the Potency was inconclusive: 22.4 µM [inhibitor, partial curve, poor fit]. COc1ccc(Br)cc1/C=N/Nc1cccc(C(=O)O)c1 was tested, and the Potency was active: 10 µM. With CCN(CC)P(=O)(c1ccccc1)c1c(C)nc2ccccn12 (stereo not given) the Potency was inconclusive: 89.1 µM [inhibitor, single point]. For CCN(CC(=O)Nc1ccc(C(=O)Nc2ccc(OC)cc2)cc1)Cc1nc2ccccc2c(=O)[nH]1, the Potency was active: 35.5 µM. COc1ccc(NC(=S)N/N=C/c2cccn2Cc2ccccc2F)cc1 was tested, and the Potency was inconclusive: 79.4 µM [inhibitor, single point]. With Cc1noc(NS(=O)(=O)c2ccc(NC(=O)CCC3CCCCC3)cc2)c1C the Potency was inconclusive: 3.98 µM [inhibitor, partial curve, poor fit]. With Oc1ccc(Cl)cc1C1=NNC(c2cccs2)C1 (stereo not given) the Potency was active: 50.1 µM. Cc1cc(F)ccc1NC(=O)C1CCN(C(=O)c2cnn(-c3ccccc3)c2-n2cccc2)CC1 was tested, and the “activity, negative = inhibition” value was inactive: 2.35%. With N#CC1=C(C2CC2)CC(c2ccccc2)C(C#N)=C1N (stereo not given) the Potency was active: 50.1 µM. For NC(=NCc1ccc2c(c1)OCO2)NC(=O)c1ccccc1, the Potency was inconclusive: 39.8 µM [inhibitor, full curve]. With O=S(=O)(N/N=C\c1cccnc1)c1ccccc1 the Potency was active: 10 µM. For COc1ccc(C2NC(=S)N3C(c4ccc(OC)cc4)NC(=S)N23)cc1 (stereo not given), the Potency was active: 3.98 µM. For N#CC1=C(SCC(=O)NC23CC4CC(CC(C4)C2)C3)NC(=O)C(C#N)C12CCCCC2 (stereo not given), the Potency was inconclusive: 39.8 µM [inhibitor, single point]. With CCOc1cc(/C=C2/NC(=O)N(CC(=O)Nc3cccc(C)c3)C2=O)ccc1O the “activity, negative = inhibition” value was inactive: 1.59%. In the case of CCc1nnc(NS(=O)(=O)c2ccc(NC(=O)c3ccc(Br)cc3)cc2)s1, the Potency is reported as inconclusive: 89.1 µM [inhibitor, single point]. In the case of C#CCOCCOCCOCCNc1nc(N2CCN(C(=O)[C@H]([C@@H](C)CC)n3cc([C@@H](N)CO)nn3)CC2)nc(N2CCN(C(=O)[C@H](Cc3cc4ccccc4[nH]3)n3cc([C@@H](N)Cc4ccc(O)cc4)nn3)CC2)n1, the Potency is reported as inconclusive: 35.5 µM [inhibitor, single point]. For c1ccc(CNCc2ccco2)cc1, the “activity, negative = inhibition” value was inactive: -6.03% [at 102 µM]. In the case of COc1ccccc1N1C(=O)c2ccccc2NC1c1cc(OC)c(OC)c(OC)c1 (stereo not given), the Potency is reported as inconclusive: 79.4 µM [inhibitor, single point]. COc1ccc(Oc2ncc3ncc(=O)n(C[C@H]4CCCO4)c3n2)cc1 was tested, and the activity, negative = inhibition was inactive: 2.35% [at 12.7 µM]. With NNC(=O)C(=O)NCCCN1CCOCC1 the Potency was active: 56.2 µM. For COc1ccc(CC(=O)NC(=S)Nc2ccc(S(N)(=O)=O)cc2)cc1, the Potency was inconclusive: 39.8 µM [inhibitor, single point]. COc1cc(/C=C(/C#N)C(=O)Nc2ccccc2)ccc1OCc1ccc(C(=O)O)cc1 was tested, and the Potency was inconclusive: 35.5 µM [inhibitor, single point]. In the case of O=C(NCc1ccccc1Br)c1ccc2c(c1)nc1n2CCOC1, the “activity, negative = inhibition” value is reported as inactive: 1.11%. In the case of CCC(=O)NC(=S)Nc1ccc(NC(=O)c2ccc(C)c([N+](=O)[O-])c2)cc1, the Potency is reported as active: 7.94 µM. In the case of Cc1cnc(NC(=O)CCCc2nc3ccccc3s2)s1, the Potency is reported as active: 35.5 µM. With CCCCCC/C(C)=C1/SC(=S)NC1=O the Potency was inconclusive: 79.4 µM [inhibitor, single point]. For Cc1ccc(S(=O)(=O)N(CC(=O)Nc2ccc(C)cc2C)C(=O)N2CCN(C)CC2)cc1, the activity, negative = inhibition was inactive: -4.08% [at 2.33 µM]. COc1ccc(C(=O)CCS(=O)(=O)c2ccc(C)cc2)cc1 was tested, and the “activity, negative = inhibition” value was inactive: -8.7% [at 102 µM]. For COc1ccc(S(=O)(=O)Nc2cc(Sc3ncn[nH]3)c(O)c3ccccc23)cc1, the Potency was active: 1.58 µM. For CCOC(=O)C1CCCCN1Cc1ccc(OC)c(OC)c1 (stereo not given), the Potency was active: 31.6 µM. COc1cc2[nH]c(C(=O)N3CCN(c4ccc(F)cc4)CC3)cc2c(OC)c1OC was tested, and the “activity, negative = inhibition” value was inactive: -14% [at 102 µM]. For CC1/C=C/C=C/C=C/C=C/C=C/C=C/C=C/C(OC2OC(C)C(O)C(N)C2O)CC2O[C@@](O)(CC(O)CC(O)C(O)CCC(O)CC(O)CC(=O)OC(C)[C@H](C)C1O)CC(O)C2C(=O)O (stereo not given in full), the activity, negative = inhibition was inconclusive: -55.2% [inhibitor] [at 2.33 µM]. In the case of Cc1ccc(SCC(=O)OCc2csc(CC(=O)Nc3ccccc3C)n2)cc1C, the Potency is reported as inconclusive: 0.708 µM [inhibitor, partial curve, poor fit]. For O=C(COC(=O)CCN1C(=O)/C(=C\C=C\c2ccccc2)SC1=S)Nc1cc(F)ccc1F, the Potency was inconclusive: 28.2 µM [inhibitor, partial curve, poor fit]. CCOC(=O)C1CCCN(CCC(=O)Nc2ccc(C)c(C)c2)C1 (stereo not given) was tested, and the Potency was inconclusive: 79.4 µM [inhibitor, partial curve, poor fit]. O=C1CS/C(=N\NC(=O)c2ccccc2)N1 was tested, and the Potency was active: 2.51 µM. In the case of O=C(Nc1ccccc1)C1(c2ccccc2)CC1(Cl)Cl (stereo not given), the Potency is reported as inconclusive: 89.1 µM [inhibitor, partial curve, poor fit]. For C=CCn1c(-c2csc3ccccc23)n[nH]c1=S, the Potency was inconclusive: 1.41 µM [inhibitor, full curve, poor fit].
% is set by controls: 0 for no effect and ±100 for the full control effect; potency is the fitted concentration of half-maximal effect; tags give direction and shape of the fitted curve.
Note: nearly all actives have a fitted effect of over 75% in size.
